Paper PMC6212790
This is one part of the list. At the low end of the ranking, values are background and their order means little.

target: T1, GST-Rok-C97-191 (UniProt O34857); test: protein binding microarray; conditions: Rok is a gene silencer of Bacillus subtilis; high values mean tight binding; most listed sequences are background and not binding sites; double strand, one strand shown;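 note: rank score from −0.5 (least bound) to 0.5 (best bound)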
T1 sequence: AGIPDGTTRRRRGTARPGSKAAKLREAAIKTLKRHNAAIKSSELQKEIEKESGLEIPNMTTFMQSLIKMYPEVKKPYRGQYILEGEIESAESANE

Row | Sequence | binding signal [E-score]
1 | ACACGCGT | 0.0894
2 | CGAGGAAC | -0.152
3 | ATAGACAC | 0.151
4 | ACCGCCCG | -0.346
5 | GGTGTTCA | -0.0907
6 | GCCGCCTA | -0.225
7 | GCTCAACA | -0.228
8 | ATGTACGC | -0.00331
9 | AGCACACT | -0.037
10 | ACCTTTAA | 0.0637
11 | ATCGTTAA | 0.122
12 | GTCACTCA | 0.0222
13 | CTCACAAG | -0.122
14 | TTAGCCAA | 0.0797
15 | CTTGTTTA | -0.0624
16 | CCCTACTA | 0.124
17 | TTGATCAA | -0.0674
18 | AAAAGTAC | 0.279
19 | GATGATCC | -0.215
20 | ACACGAAC | 0.0842
21 | CGCCAGAG | -0.218
22 | AAAGAGTG | 0.00883
23 | ATAACCCA | -0.0659
24 | ACATTCCG | 0.156
25 | CTCGAAAG | -0.0292

Row | Sequence | binding signal [E-score]
26 | AGTATTAT | 0.32
27 | AATACGCG | 0.19
28 | TCCTGTCA | -0.118
29 | ACCGTCCT | -0.0376
30 | CTTCCGAC | -0.0925
31 | AACCCTGA | -0.173
32 | ATAACAGC | 0.11
33 | CCTCGACA | -0.249
34 | CACAACTC | -0.0508
35 | CCATACAA | 0.105
36 | ATGTAGGC | 0.0299
37 | GTGAGGTA | 0.232
38 | AGACTGAG | -0.118
39 | GACCTACA | -0.0611
40 | ATCGGCCC | -0.1
41 | GAGAAGGC | -0.228
42 | TGCACTAA | 0.0891
43 | CATGAGTC | 0.00281
44 | GAACGGCC | -0.0958
45 | ATGACCCC | -0.0612
46 | CAACTGAA | 0.0728
47 | CCGTAAGC | -0.0964
48 | ACAGAGTA | 0.101
49 | TGGTATAA | 0.289
50 | CCCGGAAA | -0.111

Row | Sequence | binding signal [E-score]
51 | CAAATGCC | 0.0992
52 | AACTATTG | 0.291
53 | ACCGCAGG | -0.024
54 | CCCCTATC | -0.22
55 | CTATGGAA | 0.039
56 | CGCTTCTA | -0.0615
57 | AATCGTAC | 0.0782
58 | GCATCCAC | -0.165
59 | GAAGACAA | -0.119
60 | AGCCCAGC | -0.298
61 | GTACGGAC | -0.13
62 | CAAGGTTA | -0.115
63 | AGGTTTCC | -0.151
64 | CCGAGTAA | -0.0812
65 | GGCTTAAA | -0.15
66 | TGGTACCA | 0.148
67 | ACTCCGCT | -0.336
68 | GCAATCAA | 0.0979
69 | CCACTCAA | -0.0786
70 | GAAGAGTC | -0.132
71 | GGCTGTGA | 0.0766
72 | ACGGGGAT | 0.000367
73 | ATCTCTCC | -0.281
74 | AGCCGGTG | -0.27
75 | CGTGATAC | 0.0771

Row | Sequence | binding signal [E-score]
76 | ATCCACCG | -0.0931
77 | AGCCTCAG | -0.106
78 | GGGTACAC | -0.0448
79 | CCGCCAGA | -0.192
80 | GGGTGAGA | -0.123
81 | CCTATCGA | 0.117
82 | GCGCGACA | -0.0167
83 | GCGATGAC | -0.188
84 | ATGTGGTC | -0.139
85 | AGGATTAA | 0.0707
86 | ATGGATCG | 0.0585
87 | CACATCGG | -0.187
88 | GCAACCCA | -0.00176
89 | CACGATGC | -0.0892
90 | GATACGGC | -0.0947
91 | TACCGGGA | -0.0154
92 | ACACTACT | 0.18
93 | CTATGGCC | -0.0446
94 | CACACTCC | -0.365
95 | ACGATCTC | -0.183
96 | AATATCAG | 0.11
97 | ACACACTC | -0.127
98 | TCAGTCCA | -0.125
99 | ATCTAACC | 0.125
100 | TGTCCAAA | 0.0356

Row | Sequence | binding signal [E-score]
101 | GAAGGTAA | 0.0688
102 | AAACCTGG | -0.125
103 | ACCAGGGT | -0.0891
104 | CCTCCTTC | -0.178
105 | GGTGGAGA | -0.00514
106 | AAGGTTCT | -0.0457
107 | CAACATCG | -0.0362
108 | CAATCCTG | -0.137
109 | AGCAGTAA | 0.14
110 | CACCAAAC | 0.211
111 | CCTCCAGA | -0.16
112 | GAGGACTA | 0.0339
113 | CTAGGGAG | -0.192
114 | GACATGTA | 0.161
115 | CCCGGGCG | -0.327
116 | AGACTGTG | -0.248
117 | TCACGGAA | -0.117
118 | AAGTAGGC | 0.0185
119 | ACGGTACA | 0.187
120 | ACATTCGT | 0.0623
121 | TAAATTTA | 0.405
122 | ACGTGGTA | 0.187
123 | AGGGACGC | -0.331
124 | CGATTGGA | -0.192
125 | AGATTGTC | 0.0556

Row | Sequence | binding signal [E-score]
126 | TCGAACGA | 0.00801
127 | AATTCGTA | 0.2
128 | TCAGGAAA | 0.0347
129 | AGGAGCCC | -0.4
130 | AAATTCGC | 0.126
131 | TATAAATA | 0.381
132 | CTCTCGCA | -0.118
133 | CCTGATCG | -0.0596
134 | ACAGCCAC | -0.145
135 | GGGGGTAC | -0.318
136 | ACTTAGAA | 0.16
137 | ACACTTAG | 0.155
138 | CCCATCGG | -0.353
139 | CACACGAC | 0.0658
140 | CACCTATC | -0.0169
141 | TGGGATAA | 0.114
142 | AGTACGCA | 0.072
143 | TAAGTCAA | -0.0154
144 | AGGACATG | -0.0776
145 | GAGCGGTA | 0.105
146 | CTCCATTC | 0.0954
147 | ACTCAGTC | -0.17
148 | GACTTATA | 0.279
149 | CTCGTAGA | 0.121
150 | AAATGTAC | 0.364

Row | Sequence | binding signal [E-score]
151 | ACTAGCGG | 0.0831
152 | CTTGTCAA | -0.0147
153 | GGACCGCC | -0.258
154 | TGCGTACA | -0.12
155 | CCAACCAA | 0.0659
156 | AGCGGCGA | -0.117
157 | CCCCATGA | -0.0466
158 | CCGAGACC | -0.201
159 | ATAATTAG | 0.354
160 | GAGAAGTA | 0.197
161 | ACGGTTCG | -0.141
162 | GGGTAGTA | 0.3
163 | GAGTGTGA | -0.0487
164 | ATCATACG | 0.214
165 | CTACTGGC | 0.0387
166 | CAACAAAG | 0.0237
167 | ATTCCTTC | -0.103
168 | CGATTGAA | 0.0889
169 | GGTCTTCA | -0.231
170 | GAAACACC | 0.019
171 | ATAGGGAC | -0.176
172 | CTGATGAC | -0.111
173 | AAACGTCG | -0.103
174 | CAAGTCTC | -0.316
175 | ATGGCTCG | 0.0233

Row | Sequence | binding signal [E-score]
176 | ACGTGTAA | -0.0117
177 | AAAACGCG | -0.0858
178 | ACAGAACA | -0.15
179 | ACTTCGCC | 0.137
180 | AACGTGAG | -0.0637
181 | AGCGGGCG | -0.281
182 | CCCGCGGG | -0.198
183 | ATTCCTAA | 0.045
184 | AGGCTAAG | -0.133
185 | CGTGTGCC | -0.151
186 | CCGCCGAA | -0.158
187 | ACCCCGCT | -0.104
188 | AAACACAA | -0.0352
189 | GCCCCCAA | -0.241
190 | ATTACCTG | 0.0992
191 | ACACGTCC | -0.111
192 | ATTTCCGC | 0.0532
193 | ACGTACGT | 0.105
194 | AACCCATT | 0.066
195 | CGGATCGC | -0.124
196 | CCAAGTAA | 0.0468
197 | ATGAAGTG | -0.198
198 | ATGCGTGA | 0.0743
199 | ATATACAA | 0.365
200 | AGATTAAA | 0.136

Row | Sequence | binding signal [E-score]
201 | CCTTTTAC | -0.105
202 | CAATCAAG | -0.0329
203 | AATCAGAT | -0.0803
204 | ATATTCAG | -0.000452
205 | ACACCTAA | 0.191
206 | TGAGATCA | -0.0085
207 | TGTATAAA | 0.179
208 | ATGCACAA | -0.0105
209 | ACCGCTTA | 0.0251
210 | AAGAGGGT | -0.183
211 | CATCCTGC | -0.0292
212 | AATCGCCA | -0.00284
213 | GGTGGGAA | -0.0164
214 | CAAGTGCC | -0.21
215 | ACCACGCT | -0.0294
216 | TAAGGTGA | -0.0832
217 | CATTAAGC | -0.0874
218 | ATCACATG | 0.253
219 | CCGCATAC | 0.0942
